# Assay results published in ChEMBL document CHEMBL4888484, “Replenishing the malaria drug discovery pipeline: Screening and hit evaluation of the MMV Hit Generation Library 1 (HGL1) against asexual blood stage Plasmodium falciparum ,using a nano luciferase reporter read-out” (2022).
# Out of some 150,000 compounds screened, about 540 (0.36%) showed an effect of 50% or more. The list shows a part of the results.
# Tested on: Plasmodium falciparum
# Test: Primary screen in NF54 nanoGlo assay, in single point, at 2uM, 72h; a lower Z score goes with more inhibition
# Format: functional, Erythrocyte
# Conditions: timepoint 72 hour
Structure (SMILES),% Inhibition [%],Z score
O=C(CN1CCCNC1=O)N[C@@H](Cc1ccccc1)c1cccs1,0,-0.01
c1ccc2cc(-c3noc([C@@H]4Cc5[nH]cnc5CN4CC4CCCCC4)n3)ccc2c1,-1,0.12
CC1(C)C[C@@](C)(c2ccccc2)c2ccccc2N1C(=O)COc1ccc(Cl)cc1Cl,11,-1.33
COc1ccc(F)cc1CC(=O)N1C2CCC1CC(=O)NC2 (stereo not drawn),-8,1.44
O=C(Nc1nnc(-c2cccs2)o1)c1cnccn1,-2,0.21
COc1ccc(CNC(=O)c2ccc(CN3C(=O)CCn4nccc43)cc2)cc1OC,28,-3.31
Cc1nnc(NCc2cccs2)c(C#N)c1C,9,-0.89
Cc1noc(C)c1CCCNC1CC2CCC1C2 (stereo not drawn),4,-0.57
Cc1ccc([C@@H](C)CCN(C)CC2(C)COC2)o1,-4,0.68
COc1ccc(C(=O)NC[C@@]23CCC=C2N(CC2CC2)C(=O)CC3)cc1,-14,2.05
Cc1ccc(C(=O)Nc2ccsc2-c2nnc(C3CC3)o2)c(C)c1,-5,0.49
COc1nc(/C=C/C2CCCCC2)ncc1F,-10,1.84
COc1ccccc1CN(C(=O)c1ccc(C)cc1)c1ccc(CC(=O)NCCN2CCCCC2)cc1,46,-7.09
COC(=O)c1ccc(CN2CCC3(CCCN3C)CC2)cc1,-2,0.17
CCc1nn(C)c(Cl)c1CN1CCN(C(=O)c2cccs2)CC1,5,-0.84
Cc1nc2sc([C@H](c3ccc(C)o3)N3CCCCCC3)c(O)n2n1,10,-1.25
CCOC(=O)N1CCCC[C@H](c2ccccc2)C1,-13,2.06
O=S(=O)(NCc1cccc(C(F)(F)F)c1)NCC(F)(F)F,-2,0.33
O=C(CCC(F)(F)F)N[C@H]1CN(C2CCCC2)C[C@@H]1C1CC1,-1,0.13
CCS(=O)(=O)Nc1cccc(C)c1C#N,-16,2.31
Cn1cncc1C(=O)N1CC2(C)CN(Cc3ccccc3)CC2(C)C1 (stereo not drawn),-1,0.29

Structure (SMILES),% Inhibition [%],Z score
O=C1O[C@H](N2CCc3ccccc3C2)c2ccccc21,37,-4.16
O=C(N[C@H]1C[C@H](C(=O)O)C1)[C@@H]1CCc2cc(F)ccc21,-10,1.93
COCc1cn([C@@H]2CC[C@H]3CCOc4ccccc4C(=O)N4CCN(C5CCOCC5)C[C@H]4C(=O)NC[C@H]2O3)nn1,7,-0.91
COc1ccc(-c2nc(CN3[C@@H]4CC[C@H]3CNC(=O)C4)c(C)o2)c2ccccc12,-2,0.3
CCN1C(=O)C2C3CC4C(OC1(C)C42)C3O (stereo not drawn),-10,1.55
CC1CCCC(Nc2ccc3nnnn3n2)C1C (stereo not drawn),-4,0.71
Cc1ncsc1CNC(=O)N[C@H]1C[C@@H](OC(C)C)C1,-10,1.93
O=C1C[C@H](c2n[nH]c(=O)n2CCc2ccc(F)cc2)CN1Cc1ccccc1,-10,1.45
CN(C)CCN1CC2(CCC1=O)CCN(C(=O)Cc1ccc(O)cc1)CC2,-4,0.53
CC(C)CN(C)[C@@H](C)C(=O)NCc1cccs1,-6,0.78
CCc1ccccc1-c1noc(-c2coc(S(=O)(=O)N(C)C)c2)n1,-7,1.29
COCCNC(=O)CCc1c(-c2cccc(OC)c2)nc2ccc(-c3ccccc3)cn12,-11,0.98
O=C1CCCN1CCCN(Cc1cc2cc3c(cc2nc1N1CCC(O)CC1)OCO3)C(=O)CC1CCCC1,-4,0.56
CS(=O)(=O)N(CC(=O)Nc1ccc(S(=O)(=O)Nc2ccc(Cl)cc2)cc1)c1cccc(C(F)(F)F)c1,33,-3.78
Cc1noc(C)c1CN1CCc2c(cccc2N2CCOC2=O)C1,1,-0.06
Nc1nc(NCc2ccc(F)c(Cl)c2)cc(-n2cccn2)n1,-3,0.48
CCOC(=O)N1CCN(C(=O)C[C@]2(c3cccc(C(F)(F)F)c3)CC(=O)N(C3CC3)C2=O)CC1,18,-2.36
CN1N=C(C(=O)NCC[C@H]2CCCO2)CCC1=O,-1,0.14
Cn1cc(C#N)cc1C(=O)N[C@H]1CCOC[C@@H]1Oc1ccccn1,3,-0.51
CCN(C1CCN(Cc2cn(C)nc2-c2ccncc2)CC1)S(C)(=O)=O,-8,0.8
CCOC(C)(C)CS(=O)(=O)N(C)[C@H]1CCCc2nc(C)sc21,-9,1.1

Structure (SMILES),% Inhibition [%],Z score
COc1ccc(C(=O)N2CCCN(C[C@H]3CN(C(=O)Nc4ccccc4)CCO3)CC2)cc1OC,0,-0.03
Cc1cc(C)cc(C2(CNC(=O)N3C[C@@H]4CC[C@H](C3)C(=O)N4)CCCC2)c1,-11,1.28
COc1ccccc1-c1nnc([C@H]2CCN(Cc3ccc(C(F)(F)F)cc3)C2)o1,-1,0.19
Cc1nc(CN(C)C(=O)NCc2ccc3c(c2)OCO3)no1,-2,0.2
CN(Cc1cc(F)c(F)c(F)c1)c1ncccn1,-10,1.48
CN(Cc1cccn1Cc1cccs1)C[C@H]1CCOC1,-7,0.96
O=C1NCCOCCCN(C(=O)COc2ccccc2)[C@H]2CCCC[C@@H]12,-6,0.8
Cc1noc(C)c1CN1C(=O)[C@@H]2CC[C@H]1CN(c1ccc(Cl)cn1)C2,-9,1.84
CC(C)C(=O)N1C[C@@H](Oc2ccccc2)C[C@@H]1C(=O)N1CCOCC1,-13,2.55
OCCC1(CNCc2ccc(F)c(Cl)c2)CCC1,-17,1.93
Cc1ncsc1CCCNC(=O)N1C[C@H]2CCC[C@@H](C1)N(C)C2,-10,1.55
COC[C@H](C)NC(=O)N(Cc1ccc(C)s1)C1CCCC1,-6,0.81
O=C1[C@@H]2CC[C@@H](C2)N1CCS(=O)(=O)c1ccccc1,14,-1.83
C[C@H]1CC2(CCCCC2)N(C(=O)c2ccccc2)Cc2ccccc21,-12,1.52
O=C([C@H]1CCc2[nH]cnc2C1)N1CCN(Cc2ccc3c(c2)OCO3)CC1,-3,0.56
O=C1C[C@H](c2cccc3[nH]ccc23)c2c(n[nH]c2C2CCC2)N1,-16,2.5
CCCO[C@H]1CCCN(C[C@H]2CC[C@H](O)CC2)C1,-13,1.51
Cc1nc(C)c(C(=O)N(Cc2ccsc2)CC(C)C)o1,-13,1.28
COc1ccc(S(=O)(=O)N2CC(=O)N(C3CC3)[C@](C)(C(=O)NCc3ccc(C)cc3)C2)cc1,-7,0.85
O=C(O)C[C@H]1CCCN1C(=O)c1cccc2c1CCC2,3,-0.54
O=C(N[C@H](CO)CC1CCCC1)c1c[nH]c(C(F)(F)F)c1,-4,0.81

Structure (SMILES),% Inhibition [%],Z score
O=C(O)c1cccc(C(=O)N(Cc2ccc3c(c2)OCO3)C2CCCCC2)n1,-2,0.28
O=S(=O)(CCc1cccc2ccccc12)NCc1cc2n(n1)CCNC2,4,-0.52
CCCOc1ccc(-c2nc3c4c(ncn3n2)-c2ccccc2CC42CCCC2)cc1,-4,0.61
Cc1nc(C)c(C)c(N2C[C@H]3CCC[C@@]3(CO)C2)n1,0,-0.06
O=C(c1coc(C2CCOCC2)n1)N1CCc2cc(-c3ccccc3)ccc21,-14,2.65
CC[C@H]1COCCN1Cc1ccc(CN(C)S(C)(=O)=O)o1,2,-0.25
C=C(C)C(=O)Nc1ccc(Cl)c(C)c1,28,-3.67
COc1c(C)cc([C@H](C(=O)O)N(C)CCN2CCCCC2=O)cc1C,5,-0.66
CCOCCC(=O)NC1CC(OCC)C12CCCC2 (stereo not drawn),-8,0.98
CN(C)c1ccnc(CNS(C)(=O)=O)n1,5,-0.81
O=C1NC[C@@]2(CCCN(C(=O)CCc3ccc(=O)[nH]n3)C2)O1,-4,0.38
COc1ccc(OC)c(NC(=O)c2cc(C)n(CCN(C)C)c2C)c1,-12,2.24
O=c1n(Cc2c(F)cncc2F)nnn1C1CC1,-10,1.84
C#CCOCCC(=O)N(C)c1ccc(Br)cc1C,-16,3.05
O=C1CCc2cc(C(=O)N3CCC(c4ccccc4)CC3)ccc2N1,-11,1.63
Cc1nn(C)c2nc(-c3ccccn3)nc(N3CCC(CCO)CC3)c12,-10,1.35
NCc1ccc([C@@H](F)C(F)(F)F)cc1,-10,1.29
O=C(c1ccc(F)cc1)N(Cc1ccc(-c2cccc(C(F)(F)F)c2)o1)[C@H]1CCS(=O)(=O)C1,-6,0.75
CCc1ccc(C(=O)N[C@@H](C)Cn2cccn2)o1,-10,1.45
COC1CC(NC(=O)c2cnc(C)nc2C)C12CCC2 (stereo not drawn),6,-1.11
CC(C)c1cc(C(C)C)n(C2CCN(S(=O)(=O)c3ccccc3C#N)CC2)n1,-6,1.12
